# The list shows a part of the results.
# B1: PX14367B-bvu-516-23-516 (Bacteroides vulgatus) (protein)
# chain: LDTIPTTYVDAGSVFGKTGDAEKVLNGGWNYLMETFNSYANPGYGAMLRANDAMGSDVVLNSKYGFRTHNEFSAIYGKGGTNTLSWLLAYRVINDCNGVLDNIDAAEGTQADRNRIKGQALALRGFLYLHLASCYSFAIDKDPDAVCAPIYTQSTDETIAAEGKPASSVSEVYAQSINDLEEALELIPETYVRDAKHKIDNEVVLGILSRACLYARQWEKAKTYSDKLLAKDNYLMTESEYKAGFNSVDNKEWIWGHAQTNDQSNASYQFHYLDTTTKGSYYYSFNVDPYFRDLFEDGDYRKEMLFWATDPGADVESAAYVWMRNSKFRFRDIENQLGDIVLMRVAEIYLINAEAKAHLNDPDAINKLNDLKTARGAKTIHTNLSQQDLLETIWLERRKELWGEGFSLIDIIRNQQTVVRNAYPEGPIDYIYTDENGQTHTLKKKTQGHRFFNFPDKSAFCPNSKYYLYRITDSEELANKNLYKDHPKLSIYTK
# Legend:
# Assay in all cases: glycan array binding signal (z-score within array); higher = stronger binding
# Details in all cases: glycan notation: IUPAC condensed, linker removed
# [1] = molecular target: Fuc(a1-2)[GalNAc(a1-3)]Gal(b1-3)GlcNAc(b1-6)GalNAc
# How it was run: (§1)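 Glycan array data came from 3228 arrays in the Consortium for Functional Glycomics database, and only arrays with an available protein sequence were kept. Glycan names were put into IUPAC-condensed notation, and columns mapping to the same glycan were averaged. The binding signal is a within-array Z-score, averaged across arrays of one protein sequence run at different concentrations or buffers and across linkers. A negative Z-score can be read as non-binding.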
# [2] = molecular target: Fuc(a1-2)[GalNAc(a1-3)]Gal(b1-4)Glc
# How it was run: as §1
# [3] = molecular target: Fuc(a1-2)[GalNAc(a1-3)]Gal(b1-4)GlcNAc
# How it was run: as §1
# [4] = molecular target: Fuc(a1-2)[GalNAc(a1-3)]Gal(b1-4)GlcNAc(b1-2)Man
# How it was run: as §1
# [5] = molecular target: Fuc(a1-2)[GalNAc(a1-3)]Gal(b1-4)GlcNAc(b1-2)Man(a1-3)[Fuc(a1-2)[GalNAc(a1-3)]Gal(b1-4)GlcNAc(b1-2)Man(a1-6)]Man(b1-4)GlcNAc(b1-4)GlcNAc
# How it was run: as §1
# [6] = molecular target: Fuc(a1-2)[GalNAc(a1-3)]Gal(b1-4)GlcNAc(b1-2)Man(a1-3)[Fuc(a1-2)[GalNAc(a1-3)]Gal(b1-4)GlcNAc(b1-2)Man(a1-6)]Man(b1-4)GlcNAc(b1-4)[Fuc(a1-6)]GlcNAc
# How it was run: as §1
# [7] = molecular target: Fuc(a1-2)[GalNAc(a1-3)]Gal(b1-4)GlcNAc(b1-3)Gal(b1-4)GlcNAc
# How it was run: as §1
# [8] = molecular target: Fuc(a1-2)[GalNAc(a1-3)]Gal(b1-4)GlcNAc(b1-3)Gal(b1-4)GlcNAc(b1-3)Gal(b1-4)GlcNAc
# How it was run: as §1
# [9] = molecular target: Fuc(a1-2)[GalNAc(a1-3)]Gal(b1-4)GlcNAc(b1-3)GalNAc
# How it was run: as §1
# [10] = molecular target: Fuc(a1-2)[GalNAc(a1-3)]Gal(b1-4)GlcNAc(b1-3)[Fuc(a1-2)[GalNAc(a1-3)]Gal(b1-4)GlcNAc(b1-6)]GalNAc
# How it was run: as §1
# [11] = molecular target: Fuc(a1-2)[GalNAc(a1-3)]Gal(b1-4)GlcNAc(b1-6)GalNAc
# How it was run: as §1
# [12] = molecular target: Fuc(a1-2)[GalNAc(a1-3)]Gal(b1-4)[Fuc(a1-3)]GlcNAc
# How it was run: as §1
# [13] = molecular target: Fuc(a1-2)[GalNAc(a1-3)]Gal(b1-4)[Fuc(a1-3)]GlcNAc(b1-3)GalNAc
# How it was run: as §1
# [14] = molecular target: Fuc(a1-2)[GalNAc(a1-4)]Gal(b1-4)GlcNAc
# How it was run: as §1
# [15] = molecular target: Fuc(a1-2)[GalNAc(b1-3)]Gal
# How it was run: as §1
# Fuc(a1-3)GlcNAc = molecular target: Fuc(a1-3)GlcNAc
# How it was run: as §1
# [16] = molecular target: Fuc(a1-3)[Gal(b1-4)]Glc6S
# How it was run: as §1
# [17] = molecular target: Fuc(a1-3)[Gal(b1-4)]GlcNAc
# How it was run: as §1
# [18] = molecular target: Fuc(a1-3)[Gal(b1-4)]GlcNAc(b1-2)Man
# How it was run: as §1
# [19] = molecular target: Fuc(a1-3)[Gal(b1-4)]GlcNAc(b1-2)Man(a1-3)[Fuc(a1-3)[Gal(b1-4)]GlcNAc(b1-2)Man(a1-6)]Man(b1-4)GlcNAc(b1-4)GlcNAc
# How it was run: as §1
# [20] = molecular target: Fuc(a1-3)[Gal(b1-4)]GlcNAc(b1-2)Man(a1-3)[Fuc(a1-3)[Gal(b1-4)]GlcNAc(b1-2)Man(a1-6)]Man(b1-4)GlcNAc(b1-4)[Fuc(a1-6)]GlcNAc
# How it was run: as §1
# [21] = molecular target: Fuc(a1-3)[Gal(b1-4)]GlcNAc(b1-3)Gal(b1-3)[Fuc(a1-4)]GlcNAc
# How it was run: as §1
# [22] = molecular target: Fuc(a1-3)[Gal(b1-4)]GlcNAc(b1-3)Gal(b1-4)[Fuc(a1-3)]GlcNAc
# How it was run: as §1
# [23] = molecular target: Fuc(a1-3)[Gal(b1-4)]GlcNAc(b1-3)Gal(b1-4)[Fuc(a1-3)]GlcNAc(b1-3)Gal(b1-4)[Fuc(a1-3)]GlcNAc
# How it was run: as §1
# [24] = molecular target: Fuc(a1-3)[Gal(b1-4)]GlcNAc(b1-3)GalNAc
# How it was run: as §1
# [25] = molecular target: Fuc(a1-3)[Gal(b1-4)]GlcNAc(b1-6)GalNAc
# How it was run: as §1
# [26] = molecular target: Fuc(a1-3)[Gal(b1-4)]GlcNAc(b1-6)[Gal(b1-3)GlcNAc(b1-3)]Gal(b1-4)Glc
# How it was run: as §1
# [27] = molecular target: Fuc(a1-3)[Gal(b1-4)]GlcNAc6S
# How it was run: as §1
# [28] = molecular target: Fuc(a1-3)[Gal3S(b1-4)]Glc
# How it was run: as §1
# [29] = molecular target: Fuc(a1-3)[Gal3S(b1-4)]GlcNAc
# How it was run: as §1
# [30] = molecular target: Fuc(a1-3)[Gal3S(b1-4)]GlcNAc6S
# How it was run: as §1
# [31] = molecular target: Fuc(a1-3)[GalNAc(b1-4)]GlcNAc
# How it was run: as §1
# [32] = molecular target: Fuc(a1-3)[GalNAc(b1-4)]GlcNAc6S
# How it was run: as §1
# Fuc(a1-4)GlcNAc = molecular target: Fuc(a1-4)GlcNAc
# How it was run: as §1
# Fuc(b1-3)GlcNAc = molecular target: Fuc(b1-3)GlcNAc
# How it was run: as §1
# Gal(a1-2)Gal = molecular target: Gal(a1-2)Gal
# How it was run: as §1
# Gal(a1-3)Gal = molecular target: Gal(a1-3)Gal
# How it was run: as §1
binder,measurement,setting,value
B1,glycan array binding signal (z-score),[1],-0.382
same,glycan array binding signal (z-score),[2],-0.308
same,glycan array binding signal (z-score),[3],-0.36
same,glycan array binding signal (z-score),[4],-0.332
same,glycan array binding signal (z-score),[5],7.56
same,glycan array binding signal (z-score),[6],-0.315
same,glycan array binding signal (z-score),[7],-0.267
same,glycan array binding signal (z-score),[8],-0.04
same,glycan array binding signal (z-score),[9],-0.244
same,glycan array binding signal (z-score),[10],-0.308
same,glycan array binding signal (z-score),[11],-0.216
same,glycan array binding signal (z-score),[12],-0.369
same,glycan array binding signal (z-score),[13],0.034
same,glycan array binding signal (z-score),[14],4.75
same,glycan array binding signal (z-score),[15],2.63
same,glycan array binding signal (z-score),Fuc(a1-3)GlcNAc,-0.348
same,glycan array binding signal (z-score),[16],-0.217
same,glycan array binding signal (z-score),[17],-0.23
same,glycan array binding signal (z-score),[18],-0.331
same,glycan array binding signal (z-score),[19],-0.223
same,glycan array binding signal (z-score),[20],0.066
same,glycan array binding signal (z-score),[21],-0.255
same,glycan array binding signal (z-score),[22],-0.358
same,glycan array binding signal (z-score),[23],-0.235
same,glycan array binding signal (z-score),[24],-0.215
same,glycan array binding signal (z-score),[25],0.197
same,glycan array binding signal (z-score),[26],-0.35
same,glycan array binding signal (z-score),[27],0.766
same,glycan array binding signal (z-score),[28],-0.34
same,glycan array binding signal (z-score),[29],-0.318
same,glycan array binding signal (z-score),[30],-0.322
same,glycan array binding signal (z-score),[31],-0.117
same,glycan array binding signal (z-score),[32],-0.242
same,glycan array binding signal (z-score),Fuc(a1-4)GlcNAc,-0.389
same,glycan array binding signal (z-score),Fuc(b1-3)GlcNAc,-0.298
same,glycan array binding signal (z-score),Gal(a1-2)Gal,-0.287
same,glycan array binding signal (z-score),Gal(a1-3)Gal,0.031

# — the supplement of paper PMC8728848
